Measured values published in PubChem BioAssay AID1460 (National Center for Advancing Translational Sciences (NCATS), 2008).
Hit rate of the full screen: of about 270,000 compounds, about 5,800 (2.1%) were called active. Inconclusive means that the source gave no clear call. Such entries were picked first, then a sample of the others. Calls come from the whole dose curve; as a rule, active = well fitted inhibition curve with a large enough effect; inconclusive = small, poorly fitted or top-dose-only effect; inactive = flat fitted curve, though single readings scatter. A potency beside an inconclusive call is a rough fit, not a confirmed value.

molecular target: Microtubule-associated protein tau (Homo sapiens) (UniProt P10636); assay: qHTS for Inhibitors of Tau Fibril Formation, Thioflavin T Binding; conditions: recombinant tau K18 P301L, heparin-induced fibrillization, ThT fluorescence; series mostly up to 57.4 µM; activity, negative = inhibition: at the top concentration; note: nearly all actives have a fitted effect of over 55% in size
Summary of the method: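 Using a mix of unlabeled (15 uM) and Alexa 594-labeled (0.24 uM) tau K18 P301L, heparin-triggered fibrillization over 6 hr at 37 C was scored by ThT fluorescence.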
% is set by controls: 0 for no effect and ±100 for the full control effect; potency is the fitted concentration of half-maximal effect; tags give direction and shape of the fitted curve.

Sequence of UniProt P10636 (P10636 whole entry, looked up): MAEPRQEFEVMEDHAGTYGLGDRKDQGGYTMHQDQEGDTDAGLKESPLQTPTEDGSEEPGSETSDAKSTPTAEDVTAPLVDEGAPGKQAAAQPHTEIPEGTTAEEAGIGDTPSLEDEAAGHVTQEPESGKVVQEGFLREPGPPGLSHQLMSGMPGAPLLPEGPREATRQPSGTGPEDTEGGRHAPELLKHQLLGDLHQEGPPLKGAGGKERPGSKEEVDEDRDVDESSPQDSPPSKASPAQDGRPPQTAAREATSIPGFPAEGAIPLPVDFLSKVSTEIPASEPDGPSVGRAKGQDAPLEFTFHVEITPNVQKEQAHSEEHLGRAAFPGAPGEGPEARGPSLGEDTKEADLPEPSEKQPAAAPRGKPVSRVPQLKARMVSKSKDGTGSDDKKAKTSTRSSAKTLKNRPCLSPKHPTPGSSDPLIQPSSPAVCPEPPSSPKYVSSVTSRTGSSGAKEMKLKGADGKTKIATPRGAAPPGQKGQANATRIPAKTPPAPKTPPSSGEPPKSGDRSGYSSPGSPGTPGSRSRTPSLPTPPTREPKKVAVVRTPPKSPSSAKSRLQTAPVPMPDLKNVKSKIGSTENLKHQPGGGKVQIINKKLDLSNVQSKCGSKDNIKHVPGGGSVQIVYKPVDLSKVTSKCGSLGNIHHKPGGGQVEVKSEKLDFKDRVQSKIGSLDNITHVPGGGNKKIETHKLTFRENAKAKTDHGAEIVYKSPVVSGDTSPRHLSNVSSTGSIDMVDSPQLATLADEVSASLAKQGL

| Structure (SMILES) | activity, negative = inhibition | Potency |
| --- | --- | --- |
| O=[N+]([O-])c1cc(C(F)(F)F)ccc1N1CCN(CCO)CC1 | inactive: -7.74% |  |
| CSc1nc(N)c(C(=O)NC2CCCCC2)s1 | inactive: -1.96% |  |
| O=C(O)c1ccc(N/N=C2/CCCc3ccccc32)cc1 |  | inconclusive: 14.1 µM [inhibitor, partial curve] |
| Cc1c(NC(=O)CC(=O)Nc2c(C)n(C)n(-c3ccccc3)c2=O)c(=O)n(-c2ccccc2)n1C | inactive: -4.02% |  |
| COc1ccc(S(=O)(=O)N2CCC(C(=O)NCc3ccccn3)CC2)cc1C | inactive: -0.145% |  |
| COc1ccc(NCC(=O)n2c(C)c(C)c3ccccc32)cc1 |  | inconclusive: 28.2 µM [inhibitor, single point] |
| CCOC(=O)c1sc(NC(=O)c2ccncc2)c(C#N)c1C |  | inconclusive: 14.1 µM [inhibitor, partial curve] |
| Cc1cccc(-c2nc(C#N)c(NCc3ccco3)o2)c1 |  | inconclusive: 39.8 µM [inhibitor, single point] |
| Cc1nn(-c2ccccc2)c(Cl)c1/C=C1\SC(=S)N(CCCCCC(=O)O)C1=O |  | inconclusive: 28.2 µM [inhibitor, partial curve] |
| CCOC(=O)c1nnn(-c2nonc2N)c1CSc1ccccc1 | inactive: -13.9% |  |
| CC(C)(C)C1=CC(=O)C(N2CCOCC2)=CC1=O |  | inconclusive: 35.5 µM [inhibitor, single point] |
| COC(=O)c1cccc(-c2ccc(/C=N/N3C(=O)C4C5C=CC(C6CC56)C4C3=O)o2)c1 (stereo not given) | inactive: -16% |  |
| CCN(CC)c1ccc2c(C)c(-c3ccc(N)cc3)c(=O)oc2c1 |  | inconclusive: 17.8 µM [inhibitor, partial curve] |
| O=C(CSc1nc(=O)n(CCN2CCOCC2)c2c1CCC2)Nc1ccccc1 | inactive: 3.49% |  |
| CCOc1ccc2cc(/C=C/C(=O)c3ccco3)c(Cl)nc2c1 |  | inconclusive: 8.91 µM [inhibitor, partial curve] |
| Nc1ccc(N2CCN(c3ccc(F)cc3)CC2)cc1 |  | active: 12.6 µM |
| CC(=O)Nc1ccc(/C=C2\Sc3ccccc3C2=O)cc1 |  | inconclusive: 1 µM [inhibitor, full curve] |
| Cc1ccc(/C=N/Nc2ncc(Cl)cc2Cl)s1 |  | inconclusive: 4.47 µM [inhibitor, partial curve] |
| COc1cc(C2N=C(c3ccccc3)NO2)cc(Br)c1O (stereo not given) |  | inconclusive: 20 µM [inhibitor, single point] |
| COc1ccc2c(c1)c(C(=O)CN1CCc3ccccc3C1)c(C)n2C | inactive: -7.5% |  |
| CCOC(=O)Cn1c(=NC(=O)c2ccc([N+](=O)[O-])s2)sc2ccccc21 |  | inconclusive: 1.12 µM [inhibitor, full curve, poor fit] |
| COc1cc(OC)cc(C(=O)N2CCN(Cc3ccccc3C(F)(F)F)CC2)c1 |  | inconclusive: 5.01 µM [inhibitor, full curve] |
| COc1cccc(Cn2c(CNC(=O)c3cc([N+](=O)[O-])ccc3Cl)nc3cccnc32)c1 | inactive: -6.26% |  |
| O=C(Cc1c(F)cccc1Cl)Nc1ncc([N+](=O)[O-])s1 |  | inconclusive: 25.1 µM [inhibitor, single point] |

| Structure (SMILES) | activity, negative = inhibition | Potency |
| --- | --- | --- |
| COC(=O)[C@@]1(Cc2ccc(F)cc2)[C@H]2c3cc(C(=O)N(C)C)n(Cc4ccc(C)c(F)c4F)c3C[C@H]2CN1C(=O)c1ccccc1 |  | inconclusive: 22.4 µM [inhibitor, single point] |
| NNC(=O)c1oc2ccccc2c1-n1cccc1 |  | inconclusive: 35.5 µM [inhibitor, single point] |
| CC(C)c1nc2sc3c(SCC(=O)NCc4ccco4)ncnc3c2c2c1CCC2 | inactive: -3.38% |  |
| C/C(=N\Nc1ccccn1)c1ccc(S(=O)(=O)NCc2ccco2)cc1 |  | inconclusive: 35.5 µM [inhibitor, single point] |
| Cc1ccc(N2CCN(S(=O)(=O)c3ccc(F)c(C)c3)CC2)c(C)c1 |  | inconclusive: 39.8 µM [inhibitor, single point] |
| Cc1ccc(Cl)cc1N1CCN(S(=O)(=O)c2ccc3c(c2)CC(C)N3C(=O)C2CCC2)CC1 (stereo not given) | inactive: 8.05% |  |
| O=C(NNC(=O)C1CCN(Cc2ccc(F)cc2Cl)CC1)Nc1ccc([N+](=O)[O-])cc1 | inactive: -0.0616% |  |
| COc1ccc(-c2nn3c(-c4ccccc4C)nnc3c3ccccc23)cc1 |  | inconclusive: 10 µM [inhibitor, partial curve, poor fit] |
| Cc1cc(/C=C2\C(=N)N3N=CSC3=NC2=O)c(C)n1Cc1ccccc1 |  | inconclusive: 15.8 µM [inhibitor, partial curve] |
| CN(C(=O)Cn1cc(S(=O)(=O)Cc2ccccc2Cl)c2ccccc21)c1ccccc1 | inactive: -12.5% |  |
| Cc1cccc(N=C2NC(=O)/C(=C/C=C/c3ccco3)S2)c1 |  | active: 5.01 µM |
| COc1ccc(CNc2ncnc3onc(-c4ccc(F)cc4)c23)cc1 | inactive: -4.95% |  |
| CCOc1ccccc1NC(=O)N1CCc2c(sc(C)c2CC)C1c1ccccc1 (stereo not given) | inactive: -14.2% |  |
| CNC(=O)/C(C#N)=C/c1c(N(Cc2ccccc2)Cc2ccccc2)nc2c(C)cccn2c1=O |  | inconclusive: 39.8 µM [inhibitor, single point] |
| CC(=O)NC1=NN(C(C)=O)C(c2cccs2)S1 (stereo not given) | inactive: -0.36% |  |
| Cc1cccc(C)c1-n1cccc1/C=C1/C(=N)N2C(=NC1=O)SN=C2S(C)(=O)=O |  | inconclusive: 17.8 µM [inhibitor, single point] |
| O=C(c1cc(-c2ccco2)on1)N1CCCc2ccccc21 |  | inconclusive: 15.8 µM [inhibitor, partial curve] |
| COc1ccc(N2C(=O)[C@@H]3[C@H](C2=O)[C@H]2C=CC=NN2[C@@H]3C(=O)Nc2ccc(Cl)cc2)cc1 |  | inconclusive: 14.1 µM [inhibitor, partial curve] |
| Nc1c(C(=O)NCc2ccco2)c2nc3ccccc3nc2n1CCc1ccc(F)cc1 |  | inconclusive: 39.8 µM [inhibitor, single point] |
| Brc1ccc(C2=Nn3c(Cn4nnc5ccccc54)nnc3SC2)cc1 | inactive: -7.74% |  |
| CCOc1ccccc1NC(=O)c1ccc(F)c(S(=O)(=O)NCc2ccc3c(c2)OCO3)c1 | inactive: -1.4% |  |
| O=C(Cn1nc(Cc2ccncc2)c2ccccc2c1=O)N1CCN(C(=O)c2ccco2)CC1 |  | inconclusive: 25.1 µM [inhibitor, single point] |
| O=C(NC(Cc1ccccc1)C(=O)O)C1CCCCC1 (stereo not given) | inactive: -10.5% |  |
| Cn1cc(CN2CCN(Cc3ccccc3)CC2)c(-c2cccc(Cl)c2)n1 |  | inconclusive: 44.7 µM [inhibitor, single point] |

| Structure (SMILES) | activity, negative = inhibition | Potency |
| --- | --- | --- |
| Cc1ccc(C(=O)/C=C/Nc2ccc(S(=O)(=O)Nc3onc(C)c3C)cc2)cc1 |  | inconclusive: 15.8 µM [inhibitor, partial curve] |
| COc1cc(/C=C(\C#N)c2nc3ccccc3[nH]2)ccc1OCc1cccc(C(F)(F)F)c1 |  | inconclusive: 5.01 µM [inhibitor, partial curve] |
| CCCc1cnc2c(c1SCC(=O)Nc1ccc(C)c(Cl)c1)c(=O)n(C)c(=O)n2C |  | inconclusive: 39.8 µM [inhibitor, single point] |
| COC(=O)c1ccc(N2CCN(c3ccccc3)CC2)c(NC(=O)C2CC2)c1 |  | inconclusive: 14.1 µM [inhibitor, partial curve] |
| COc1cccc(C(=O)Nc2ccccc2OC(F)(F)F)c1 | inactive: 1.16% |  |
| CC1=NNC(=O)C1C(c1ccccc1)C1C(=O)NN=C1C (stereo not given) |  | inconclusive: 15.8 µM [inhibitor, partial curve] |
| CCCCNC(=O)CCCn1c(=O)c2ccccc2n(CC(=O)Nc2ccccc2OCC)c1=O | inactive: 0.11% |  |
| COc1ccccc1N1CCN(CC(=O)c2ccc3ccn(C(C)=O)c3c2)CC1 |  | inconclusive: 20 µM [inhibitor, partial curve] |
| O=C(CSc1nc2ccc(Cl)cc2[nH]1)Nc1ccc2c(c1)CCC2 |  | inconclusive: 3.16 µM [inhibitor, full curve] |
| O=C(CN(CCc1ccccc1)C(=O)CN1C(=O)COc2ccccc21)NCc1ccco1 | inactive: -12.6% |  |
| Cc1cccc(C)c1NC(=S)N(CCCN1CCCCC1)Cc1ccco1 | inactive: -1.53% |  |
| N#Cc1cccc(CS(=O)(=O)c2nc3ccccc3s2)c1 |  | inconclusive: 1 µM [inhibitor, full curve, poor fit] |
| COC(=O)c1sc(-c2ccccc2)cc1NC(C)=O |  | inconclusive: 10 µM [inhibitor, partial curve] |
| CCOC(=O)C1CCCN(c2c(C(=O)c3ccccc3)cnc3ccc(F)cc23)C1 (stereo not given) |  | inconclusive: 35.5 µM [inhibitor, single point] |
| COc1ccccc1-n1cnnc1SCC(=O)c1cc(C)n(Cc2cccs2)c1C |  | inconclusive: 20 µM [inhibitor, single point] |
| CCOc1cc2[nH]c(=O)n(CCCCC(=O)N3CCN(c4ccccc4OC)CC3)c(=O)c2cc1OCC | inactive: -2.53% |  |
| COc1ccc(NC(=O)c2nnn(CC(=O)Nc3ccc(C)c(C)c3)c2N)cc1OC |  | inconclusive: 39.8 µM [inhibitor, single point] |
| COc1cc(CNn2cn[nH]c2=S)cc(Br)c1OCc1ccccc1F |  | inconclusive: 14.1 µM [inhibitor, single point] |
| CCOc1ccc(-n2c(SCc3nc(-c4ccc(C)cc4)no3)nnc2-c2ccncc2)cc1 |  | inconclusive: 20 µM [inhibitor, single point] |
| O=C(Nc1ccc(N2CCCCC2)cc1)c1ccc2ccccc2n1 |  | active: 12.6 µM |
| NC(=O)Cn1c(=O)n(CCCCCC(=O)NCc2ccc3c(c2)OCO3)c(=O)c2sccc21 | inactive: -12.3% |  |
| COc1cccc(-c2csc(N3CCN(S(=O)(=O)c4ccc(F)cc4)CC3)n2)c1 |  | inconclusive: 31.6 µM [inhibitor, single point] |
